{"source": "paper PMC4242493", "note": "This is one part of the list. The list includes weakly bound sequences."}
{"target": "MaxL homodimer (UniProt P61244)", "sequence (P61244 whole entry)": "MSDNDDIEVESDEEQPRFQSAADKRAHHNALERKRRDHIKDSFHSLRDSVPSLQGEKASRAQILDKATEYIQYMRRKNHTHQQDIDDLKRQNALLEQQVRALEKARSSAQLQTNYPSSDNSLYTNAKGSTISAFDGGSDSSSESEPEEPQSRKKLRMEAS", "assay": "universal protein-binding microarray (PBM)", "conditions": "PBS-based mixture, 10 nM His-tagged protein dimer, 2% milk, 200 ng/uL BSA, 50 ng/uL salmon testes DNA, 0.02% TX-100; detection with Alexa 488 anti-His …; high values mean tight binding; most listed sequences are background and not binding sites; double strand, one strand shown"}
{"sequence": "AGCTCATC", "binding signal (normalized occupancy)": 0.0724}
{"sequence": "CTACTTGA", "binding signal (normalized occupancy)": 0.0752}
{"sequence": "GGGACTAA", "binding signal (normalized occupancy)": 0.0713}
{"sequence": "TCACGCAA", "binding signal (normalized occupancy)": 0.0764}
{"sequence": "ACCATCGT", "binding signal (normalized occupancy)": 0.0731}
{"sequence": "GTAAAAAC", "binding signal (normalized occupancy)": 0.0756}
{"sequence": "ATCATGCA", "binding signal (normalized occupancy)": 0.0894}
{"sequence": "AGGGTCAA", "binding signal (normalized occupancy)": 0.0739}
{"sequence": "GTTTTACA", "binding signal (normalized occupancy)": 0.078}
{"sequence": "ATACCAAC", "binding signal (normalized occupancy)": 0.0854}
{"sequence": "ACCGGTGA", "binding signal (normalized occupancy)": 0.0754}
{"sequence": "CCGTTAAC", "binding signal (normalized occupancy)": 0.0763}
{"sequence": "AAGGACTA", "binding signal (normalized occupancy)": 0.0776}
{"sequence": "CAAATAAC", "binding signal (normalized occupancy)": 0.0791}
{"sequence": "ACGTTGAC", "binding signal (normalized occupancy)": 0.0793}
{"sequence": "AGGTCATC", "binding signal (normalized occupancy)": 0.0756}
{"sequence": "ACCTCTTA", "binding signal (normalized occupancy)": 0.0702}
{"sequence": "AATACGCA", "binding signal (normalized occupancy)": 0.0742}
{"sequence": "CCTGGCTA", "binding signal (normalized occupancy)": 0.0744}
{"sequence": "GAGAGGTA", "binding signal (normalized occupancy)": 0.07}
{"sequence": "ATGTGGGC", "binding signal (normalized occupancy)": 0.0919}
{"sequence": "GCTATCAC", "binding signal (normalized occupancy)": 0.0795}
{"sequence": "CTGCTGGA", "binding signal (normalized occupancy)": 0.0659}
{"sequence": "AAAAAAAA", "binding signal (normalized occupancy)": 0.0744}
{"sequence": "GCACCACA", "binding signal (normalized occupancy)": 0.0811}
{"sequence": "ACCGGAAA", "binding signal (normalized occupancy)": 0.069}
{"sequence": "TAGGTATA", "binding signal (normalized occupancy)": 0.0792}
{"sequence": "AAGAAGTC", "binding signal (normalized occupancy)": 0.0701}
{"sequence": "CGACGCGA", "binding signal (normalized occupancy)": 0.0735}
{"sequence": "GCGCGCCC", "binding signal (normalized occupancy)": 0.0752}
{"sequence": "GCGCCGAA", "binding signal (normalized occupancy)": 0.0677}
{"sequence": "TTAACAAA", "binding signal (normalized occupancy)": 0.0691}
{"sequence": "AGCGATAC", "binding signal (normalized occupancy)": 0.0737}
{"sequence": "GCTAGCAA", "binding signal (normalized occupancy)": 0.0714}
{"sequence": "AAAAAGTC", "binding signal (normalized occupancy)": 0.0705}
{"sequence": "GGTAATAA", "binding signal (normalized occupancy)": 0.0819}
{"sequence": "AGCGTACA", "binding signal (normalized occupancy)": 0.0796}
{"sequence": "CCCATACG", "binding signal (normalized occupancy)": 0.0864}
{"sequence": "ATTTAGCG", "binding signal (normalized occupancy)": 0.0772}
{"sequence": "CCCTCACC", "binding signal (normalized occupancy)": 0.082}
{"sequence": "ATATAAGC", "binding signal (normalized occupancy)": 0.0774}
{"sequence": "AATTTTGC", "binding signal (normalized occupancy)": 0.0704}
{"sequence": "AAGATCTT", "binding signal (normalized occupancy)": 0.0757}
{"sequence": "CGTCGCCA", "binding signal (normalized occupancy)": 0.0755}
{"sequence": "AGCTGAAC", "binding signal (normalized occupancy)": 0.0705}
{"sequence": "AAACAAGG", "binding signal (normalized occupancy)": 0.0761}
{"sequence": "TCGTTGAA", "binding signal (normalized occupancy)": 0.074}
{"sequence": "CGCCTGCC", "binding signal (normalized occupancy)": 0.0737}
{"sequence": "GCACTCGA", "binding signal (normalized occupancy)": 0.0743}
{"sequence": "CCGCATCA", "binding signal (normalized occupancy)": 0.0853}
{"sequence": "ATTCGGGA", "binding signal (normalized occupancy)": 0.074}
{"sequence": "CCCGGGAC", "binding signal (normalized occupancy)": 0.0661}
{"sequence": "AGCCACTA", "binding signal (normalized occupancy)": 0.0753}
{"sequence": "CCGGTTGA", "binding signal (normalized occupancy)": 0.0676}
{"sequence": "TAGGCGGA", "binding signal (normalized occupancy)": 0.0713}
{"sequence": "CCAAATAA", "binding signal (normalized occupancy)": 0.0748}
{"sequence": "CGCACTGC", "binding signal (normalized occupancy)": 0.0783}
{"sequence": "GAGATCCC", "binding signal (normalized occupancy)": 0.0743}
{"sequence": "GCAATACC", "binding signal (normalized occupancy)": 0.0814}
{"sequence": "CGCGGGAA", "binding signal (normalized occupancy)": 0.0721}
{"sequence": "AGTAACGA", "binding signal (normalized occupancy)": 0.0728}
{"sequence": "CGCAATGC", "binding signal (normalized occupancy)": 0.0771}
{"sequence": "CAGGGCGC", "binding signal (normalized occupancy)": 0.0699}
{"sequence": "GCTTCTAA", "binding signal (normalized occupancy)": 0.0787}
{"sequence": "GGTCAAAA", "binding signal (normalized occupancy)": 0.0804}
{"sequence": "CGTTCGAA", "binding signal (normalized occupancy)": 0.0691}
{"sequence": "AGACTCAA", "binding signal (normalized occupancy)": 0.0715}
{"sequence": "CGGAGAAC", "binding signal (normalized occupancy)": 0.0716}
{"sequence": "ATATTGTG", "binding signal (normalized occupancy)": 0.0839}
{"sequence": "ACGTGATA", "binding signal (normalized occupancy)": 0.11}
{"sequence": "CGTGGCCC", "binding signal (normalized occupancy)": 0.0814}
{"sequence": "CACCGTAG", "binding signal (normalized occupancy)": 0.0674}
{"sequence": "GACAGTGA", "binding signal (normalized occupancy)": 0.0726}
{"sequence": "CATGACCG", "binding signal (normalized occupancy)": 0.0795}
{"sequence": "AGTTTCAC", "binding signal (normalized occupancy)": 0.0734}
{"sequence": "GTCTAACA", "binding signal (normalized occupancy)": 0.0809}
{"sequence": "TATTAAAA", "binding signal (normalized occupancy)": 0.0724}
{"sequence": "CACCCCAG", "binding signal (normalized occupancy)": 0.0797}
{"sequence": "CGTTGCAC", "binding signal (normalized occupancy)": 0.0764}
{"sequence": "GAGGGCTA", "binding signal (normalized occupancy)": 0.0757}
{"sequence": "ACAACGTA", "binding signal (normalized occupancy)": 0.077}
{"sequence": "GAGTTTTA", "binding signal (normalized occupancy)": 0.0722}
{"sequence": "AAGTAACA", "binding signal (normalized occupancy)": 0.0792}
{"sequence": "CAGGACAC", "binding signal (normalized occupancy)": 0.0796}
{"sequence": "GACAGGAA", "binding signal (normalized occupancy)": 0.0709}
{"sequence": "ACAGCTGG", "binding signal (normalized occupancy)": 0.0716}
{"sequence": "CAGCTTAA", "binding signal (normalized occupancy)": 0.0688}
{"sequence": "AATGTAAA", "binding signal (normalized occupancy)": 0.0767}
{"sequence": "CACGCGCG", "binding signal (normalized occupancy)": 0.133}
{"sequence": "CGACTGGC", "binding signal (normalized occupancy)": 0.0665}
{"sequence": "CCTGCCTA", "binding signal (normalized occupancy)": 0.0773}
{"sequence": "TCATGTCA", "binding signal (normalized occupancy)": 0.0863}
{"sequence": "AACCCGTG", "binding signal (normalized occupancy)": 0.0816}
{"sequence": "GTATTCGA", "binding signal (normalized occupancy)": 0.0788}
{"sequence": "AACCTGGG", "binding signal (normalized occupancy)": 0.0724}
{"sequence": "ACACGTTC", "binding signal (normalized occupancy)": 0.102}
{"sequence": "GCTTTTAA", "binding signal (normalized occupancy)": 0.0711}
{"sequence": "ATCATGCG", "binding signal (normalized occupancy)": 0.105}
{"sequence": "GCACACCC", "binding signal (normalized occupancy)": 0.0923}
{"sequence": "AATGTCGC", "binding signal (normalized occupancy)": 0.0811}
{"sequence": "CACCGGGG", "binding signal (normalized occupancy)": 0.0704}
{"sequence": "CTATTATA", "binding signal (normalized occupancy)": 0.0793}
{"sequence": "CGGCGACG", "binding signal (normalized occupancy)": 0.0681}
{"sequence": "AGTCCCGG", "binding signal (normalized occupancy)": 0.0647}
{"sequence": "CAGATTGG", "binding signal (normalized occupancy)": 0.0718}
{"sequence": "CACTAGTG", "binding signal (normalized occupancy)": 0.0745}
{"sequence": "ACGGGTCG", "binding signal (normalized occupancy)": 0.0755}
{"sequence": "CCCGGAGC", "binding signal (normalized occupancy)": 0.0663}
{"sequence": "AAACCTAA", "binding signal (normalized occupancy)": 0.0767}
{"sequence": "TAACTAGA", "binding signal (normalized occupancy)": 0.0765}
{"sequence": "GGATTGGA", "binding signal (normalized occupancy)": 0.0752}
{"sequence": "AACATCGC", "binding signal (normalized occupancy)": 0.0768}
{"sequence": "AGCCCTTG", "binding signal (normalized occupancy)": 0.0731}
{"sequence": "GCTCGCCC", "binding signal (normalized occupancy)": 0.0696}
{"sequence": "CATTTCGG", "binding signal (normalized occupancy)": 0.0712}
{"sequence": "CAGGTACA", "binding signal (normalized occupancy)": 0.0806}
{"sequence": "ATATGTAC", "binding signal (normalized occupancy)": 0.0941}
{"sequence": "CTGTTCTC", "binding signal (normalized occupancy)": 0.0736}
{"sequence": "CCGTGCGA", "binding signal (normalized occupancy)": 0.0776}
{"sequence": "ACTTATTC", "binding signal (normalized occupancy)": 0.0737}
{"sequence": "GCCAACTA", "binding signal (normalized occupancy)": 0.0719}
{"sequence": "AAAATCCA", "binding signal (normalized occupancy)": 0.0778}
{"sequence": "ATACGCCC", "binding signal (normalized occupancy)": 0.0761}
{"sequence": "ACAGAGCA", "binding signal (normalized occupancy)": 0.0728}
{"sequence": "CCTGTACG", "binding signal (normalized occupancy)": 0.0725}
{"sequence": "ACTAACAC", "binding signal (normalized occupancy)": 0.0782}
{"sequence": "TAAATAAA", "binding signal (normalized occupancy)": 0.0766}
{"sequence": "AGCTAACT", "binding signal (normalized occupancy)": 0.0663}
{"sequence": "CTGACTCC", "binding signal (normalized occupancy)": 0.0757}
{"sequence": "CGCAGCCC", "binding signal (normalized occupancy)": 0.0668}
{"sequence": "CGAGTTGC", "binding signal (normalized occupancy)": 0.0732}
{"sequence": "ACTGGCTA", "binding signal (normalized occupancy)": 0.07}
{"sequence": "AGCGAATG", "binding signal (normalized occupancy)": 0.0731}
{"sequence": "CGGCGGCC", "binding signal (normalized occupancy)": 0.0722}
{"sequence": "AACTCTGA", "binding signal (normalized occupancy)": 0.0654}
{"sequence": "CATTCACA", "binding signal (normalized occupancy)": 0.086}
{"sequence": "ACCCTCGA", "binding signal (normalized occupancy)": 0.0805}
{"sequence": "ATCTTAGC", "binding signal (normalized occupancy)": 0.0785}
{"sequence": "CGAAGGCC", "binding signal (normalized occupancy)": 0.0659}
{"sequence": "CACTTCTA", "binding signal (normalized occupancy)": 0.078}
{"sequence": "TGGCTGAA", "binding signal (normalized occupancy)": 0.0759}
{"sequence": "CAGCTCTA", "binding signal (normalized occupancy)": 0.0723}
{"sequence": "CACGCGAG", "binding signal (normalized occupancy)": 0.111}
{"sequence": "GTGTTGTA", "binding signal (normalized occupancy)": 0.0853}
{"sequence": "CGCAAGCG", "binding signal (normalized occupancy)": 0.0656}
{"sequence": "CACACTTC", "binding signal (normalized occupancy)": 0.0843}
{"sequence": "CCGCAGGA", "binding signal (normalized occupancy)": 0.0669}
{"sequence": "GGAAATAA", "binding signal (normalized occupancy)": 0.0786}
{"sequence": "ATGATCCA", "binding signal (normalized occupancy)": 0.082}
{"sequence": "AACGAACC", "binding signal (normalized occupancy)": 0.07}
{"sequence": "GGTTGGCA", "binding signal (normalized occupancy)": 0.0738}
{"sequence": "AATAATGC", "binding signal (normalized occupancy)": 0.0789}
{"sequence": "ACCTGAGT", "binding signal (normalized occupancy)": 0.0721}
{"sequence": "AACGGCAT", "binding signal (normalized occupancy)": 0.0766}
{"sequence": "AAGTGTGA", "binding signal (normalized occupancy)": 0.0854}
{"sequence": "CGCAGCGC", "binding signal (normalized occupancy)": 0.0689}
{"sequence": "CTCCTGTA", "binding signal (normalized occupancy)": 0.0767}
{"sequence": "ACTGGACC", "binding signal (normalized occupancy)": 0.0684}
{"sequence": "CATCGGTC", "binding signal (normalized occupancy)": 0.0723}
{"sequence": "CTGACGCC", "binding signal (normalized occupancy)": 0.0722}
{"sequence": "ACGGTACC", "binding signal (normalized occupancy)": 0.0705}
{"sequence": "GACATCAC", "binding signal (normalized occupancy)": 0.0779}
{"sequence": "GGAGAACC", "binding signal (normalized occupancy)": 0.0739}
{"sequence": "AACTCCAA", "binding signal (normalized occupancy)": 0.0704}
{"sequence": "TATTAAGA", "binding signal (normalized occupancy)": 0.0731}
{"sequence": "CCACGGAG", "binding signal (normalized occupancy)": 0.0698}
{"sequence": "ACGAAGCA", "binding signal (normalized occupancy)": 0.0771}
{"sequence": "ATACAAGA", "binding signal (normalized occupancy)": 0.076}
{"sequence": "AAAATTTC", "binding signal (normalized occupancy)": 0.0702}
{"sequence": "CGCCCGGA", "binding signal (normalized occupancy)": 0.068}
{"sequence": "CACCTTCA", "binding signal (normalized occupancy)": 0.0758}
{"sequence": "AAAGCTGG", "binding signal (normalized occupancy)": 0.0673}
